Source: PubChem BioAssay (NCATS)
Values joined by “and” are separate entries in the source; they are usually repeats but may differ in a detail not shown here. Identical values can stand only once. The shares of active, inactive and inconclusive entries below differ from those in the screen. Where the call is inconclusive, the potency comes from a doubtful curve fit. Active and inactive are the calls of the source. Calls follow the shape of the dose curve; as a rule, active = well fitted curve in the direction sought with a large enough effect; inconclusive = small, poorly fitted or top-dose-only effect, or another doubt; inactive = no such curve, though single readings can be large; an effect the other way counts as inactive or inconclusive.

Key:
[1] = qHTS of pediatric cancer cell lines to identify multiple opportunities for drug repurposing: Primary screen for Saos-2 cells (AID 1347097); also: nearly all actives have a fitted effect of over 40% in size
In short: (§1)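 500-1,000 cells/well; 5 h pre-incubation 37 °C/5% CO2; compound pinned; 48 h; CellTiter-Glo, 15 min RT; luminescence. MIPE 11-pt from 0.78 nM, NPC 8-pt from 0.59 nM final. Bortezomib 2.3 µM final as positive control.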

[2] = qHTS of pediatric cancer cell lines to identify multiple opportunities for drug repurposing: Primary screen for SK-N-SH cells (AID 1347098); conditions: SK-N-SH viability, CellTiter-Glo luminescence, 48 h; activity change, negative = cytotoxic: at 57 µM (top of the series); also: nearly all actives have a fitted effect of over 65% in size
In short: (§2)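 Cells (500-1,000/well) rested 5 h, then received compounds for 48 h; metabolically active cells were measured by CellTiter-Glo luminescence. Final concentrations spanned up to 46 µM (MIPE, 11-point) or 0.59 nM-46 µM (NPC, 8-point) in primary screens, 11-point in follow-ups.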

[3] = qHTS of pediatric cancer cell lines to identify multiple opportunities for drug repurposing: Primary screen for NB1643 cells (AID 1347099); also: nearly all actives have a fitted effect of over 50% in size
In short: as §1

[4] = qHTS of pediatric cancer cell lines to identify multiple opportunities for drug repurposing: Primary screen for LAN-5 cells (AID 1347100); conditions: LAN-5 neuroblastoma viability, CellTiter-Glo luminescence, 48 h; activity change, negative = cytotoxic: at 46 µM (top of the series)
In short: (§3)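 Viability after 48 h compound treatment at 37C, 500-1,000 cells/well, read as ATP luminescence with CellTiter-Glo. Primary screens used 11-point (MIPE, 0.78 nM-46 µM) or 8-point (NPC, 0.59 nM-46 µM) final concentrations; follow-up screens used 11-point dilutions.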

[5] = qHTS of pediatric cancer cell lines to identify multiple opportunities for drug repurposing: Primary screen for BT-12 cells (AID 1347101); also: nearly all actives have a fitted effect of over 25% in size
In short: as §2

[6] = qHTS of pediatric cancer cell lines to identify multiple opportunities for drug repurposing: Primary screen for Rh18 cells (AID 1347102); conditions: Rh18 rhabdomyosarcoma viability, CellTiter-Glo luminescence, 48 h; activity change, negative = cytotoxic: at 46 µM (top of the series); also: nearly all actives have a fitted effect of over 65% in size
In short: as §3

[7] = qHTS of pediatric cancer cell lines to identify multiple opportunities for drug repurposing: Primary screen for OHS-50 cells (AID 1347103); also: nearly all actives have a fitted effect of over 40% in size
In short: as §2

[8] = qHTS of pediatric cancer cell lines to identify multiple opportunities for drug repurposing: Primary screen for control Hh wild type fibroblast cells (AID 1347106); also: nearly all actives have a fitted effect of over 55% in size
In short: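 Cells (500-1,000/well) in growth media were settled 5 h at 37 degrees C, then given compounds for 48 h. Viability was read as CellTiter-Glo luminescence. Primary runs used MIPE at 11 points (0.78 nM-46 µM) and NPC at 8 points (0.59 nM-46 µM); follow-ups used 11 points.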

[9] = qHTS of pediatric cancer cell lines to identify multiple opportunities for drug repurposing: Primary screen for MG 63 (6-TG R) cells (AID 1347105); conditions: MG 63 (6-TG R) viability, CellTiter-Glo, 48 h; activity change, negative = cytotoxic: at 46 µM (top of the series); also: nearly all actives have a fitted effect of over 50% in size
In short: as §1

[10] = qHTS of pediatric cancer cell lines to identify multiple opportunities for drug repurposing: Primary screen for RD cells (AID 1347104); also: nearly all actives have a fitted effect of over 55% in size
In short: as §1
Potency is read from the fitted curve at half-maximal effect; tags tell the direction and shape of the fitted curve.

Structure (SMILES)	Potency [1]	Potency [2]	Potency [3]	Potency [4]	Potency [5]	Potency [6]	Potency [7]	Potency [8]	Potency [9]	Potency [10]
Cn1cnc([N+](=O)[O-])c1Sc1ncnc2nc[nH]c12	inconclusive: 15 µM [cytotoxic, partial curve]	inconclusive: 9.94 µM [cytotoxic, full curve] and inconclusive: 7.7 nM [cytotoxic, full curve, poor fit] and inconclusive: 6.81 µM [cytotoxic, partial curve]	inconclusive: 10.6 µM [cytotoxic, partial curve] and inconclusive: 14.8 µM [cytotoxic, partial curve]	active: 6.79 µM and inconclusive: 2.99 µM [cytotoxic, full curve] and active: 5.26 µM	inconclusive: 8.86 µM [cytotoxic, full curve] and inconclusive: 15.5 µM [cytotoxic, partial curve] and inconclusive: 24.3 µM [cytotoxic, partial curve]	inconclusive: 15.2 µM [cytotoxic, partial curve] and inconclusive: 8.41 µM [cytotoxic, partial curve, poor fit]	active: 1.4 µM and active: 3.47 µM and active: 3.06 µM	inconclusive: 6.05 µM [cytotoxic, full curve, poor fit]	–	–
CC1(C)C(N(O)C(=O)Nc2ccc(Cl)cc2)N(c2ccc(Cl)cc2)C(=O)N1CC(=O)NN=CC=Cc1ccc([N+](=O)[O-])o1 (configuration not stated)	inconclusive: 18.7 µM [cytotoxic, partial curve, poor fit]	inconclusive: 38.3 µM [cytotoxic, single point]	active: 20.9 µM	inconclusive: 29.6 µM [cytotoxic, single point]	inconclusive: 34.3 µM [cytotoxic, single point]	–	inconclusive: 38.5 µM [cytotoxic, single point]	inconclusive: 18.7 µM [cytotoxic, single point]	inconclusive: 23.5 µM [cytotoxic, partial curve, poor fit]	–
O=S(=O)(O)c1ccc2cc(N=Nc3cc(S(=O)(=O)O)c4cccnc4c3O)ccc2c1	inconclusive: 14.8 µM [cytotoxic, partial curve]	inconclusive: 27.1 µM [cytotoxic, partial curve]	inconclusive: 11.8 µM [cytotoxic, partial curve]	inactive	inconclusive: 8.63 µM [cytotoxic, partial curve, poor fit]	inconclusive: 29.6 µM [cytotoxic, single point]	inconclusive: 21.7 µM [cytotoxic, partial curve]	–	inconclusive: 18.7 µM [cytotoxic, partial curve]	inconclusive: 18.7 µM [cytotoxic, single point]
CCCCC(CC)CN=C(N)NC(N)=NCCCCCCN=C(N)NC(N)=NCC(CC)CCCC (configuration not stated)	active: 9.44 µM	active: 4.33 µM	inconclusive: 5.31 µM [cytotoxic, single point]	active: 5.31 µM	active: 2.46 µM	active: 8.41 µM	–	inconclusive: 1.06 µM [cytotoxic, full curve, poor fit]	–	–
Cc1cc(CS(=O)(=O)c2ccccc2)cc(OCc2ccc(CN3CCC[C@H]3CO)cc2)c1	inconclusive: 11.8 µM [cytotoxic, partial curve]	inconclusive: 19.2 µM [cytotoxic, partial curve]	active: 14.8 µM	–	inconclusive: 21.7 µM [cytotoxic, partial curve]	inconclusive: 16.6 µM [cytotoxic, partial curve]	inconclusive: 19.3 µM [cytotoxic, partial curve]	–	inconclusive: 18.7 µM [cytotoxic, single point]	active: 5.9 µM
NC(=O)n1c(O)c(C(=O)c2cccs2)c2cc(Cl)ccc21	inconclusive: 33.5 µM [cytotoxic, single point]	inconclusive: 4.86 µM [cytotoxic, full curve]	inconclusive: 23.7 µM [cytotoxic, single point]	inconclusive: 29.9 µM [cytotoxic, single point]	inconclusive: 38.9 µM [cytotoxic, partial curve, poor fit]	–	inconclusive: 30.9 µM [cytotoxic, single point]	–	–	inconclusive: 23.7 µM [cytotoxic, single point]
CNc1nc(-c2ccc3c(N)n[nH]c3c2)cc(N2C[C@@H](C(=O)NC3CCCCC3)CC[C@@H]2C)n1	inconclusive: 4.18 µM [cytotoxic, partial curve, poor fit]	inconclusive: 8.57 µM [cytotoxic, partial curve]	inconclusive: 26.4 µM [cytotoxic, single point]	–	inconclusive: 34.3 µM [cytotoxic, partial curve, poor fit]	inconclusive: 5.9 µM [cytotoxic, partial curve]	–	–	active: 3.72 µM	active: 20.9 µM
O[C@@H](CNC[C@H](O)[C@H]1CCc2cc(F)ccc2O1)[C@@H]1CCc2cc(F)ccc2O1	active: 26.4 µM and inconclusive: 26.6 µM [cytotoxic, single point]	inconclusive: 27.1 µM [cytotoxic, partial curve]	inconclusive: 18.7 µM [cytotoxic, partial curve] and inconclusive: 29.9 µM [cytotoxic, single point]	inconclusive: 37.2 µM [cytotoxic, single point] and inconclusive: 33.5 µM [cytotoxic, single point]	active: 27.3 µM and inconclusive: 34.7 µM [cytotoxic, single point]	inconclusive: 23.5 µM [cytotoxic, single point] and inconclusive: 29.9 µM [cytotoxic, single point]	–	–	inconclusive: 18.7 µM [cytotoxic, partial curve, poor fit] and inconclusive: 26.6 µM [cytotoxic, single point]	active: 33.2 µM and inconclusive: 29.9 µM [cytotoxic, single point]
CC(C)=CCC1C(=O)N(c2ccccc2)N(c2ccccc2)C1=O	inconclusive: 33.5 µM [cytotoxic, single point]	inconclusive: 30.7 µM [cytotoxic, single point]	inconclusive: 26.6 µM [cytotoxic, single point]	–	inconclusive: 38.9 µM [cytotoxic, partial curve, poor fit]	–	inconclusive: 38.9 µM [cytotoxic, partial curve, poor fit]	–	–	–
CCCCCCCCCCCCCCCC[N+](C)(C)CC	active: 13.3 µM	active: 12.2 µM	inconclusive: 18.8 µM [cytotoxic, single point]	inconclusive: 21.1 µM [cytotoxic, single point]	–	active: 0.473 µM	active: 0.692 µM	inconclusive: 33.5 µM [cytotoxic, single point]	–	–
CNCCC(Oc1ccc(C(F)(F)F)cc1)c1ccccc1 (configuration not stated)	inconclusive: 29.9 µM [cytotoxic, single point]	inconclusive: 21.7 µM [cytotoxic, single point]	inconclusive: 29.9 µM [cytotoxic, single point]	–	inconclusive: 38.9 µM [cytotoxic, single point]	inconclusive: 29.9 µM [cytotoxic, single point]	–	–	–	inconclusive: 26.6 µM [cytotoxic, single point]
Nc1ccc2cc3ccc(N)cc3nc2c1	inconclusive: 15 µM [cytotoxic, single point]	active: 7.7 µM	inconclusive: 23.7 µM [cytotoxic, single point]	–	active: 7.77 µM	inconclusive: 29.9 µM [cytotoxic, single point]	inconclusive: 38.9 µM [cytotoxic, single point]	–	inconclusive: 26.6 µM [cytotoxic, partial curve, poor fit]	–
CCc1ccc(C(=O)C(C)CN2CCCCC2)cc1 (configuration not stated)	inconclusive: 29.9 µM [cytotoxic, partial curve, poor fit]	inconclusive: 5.45 µM [cytotoxic, partial curve, poor fit]	–	–	–	–	–	–	–	–
CCN(CC)C(C)CN1c2ccccc2Sc2ccccc21 (configuration not stated)	inactive	inconclusive: 38.6 µM [cytotoxic, single point]	–	–	–	–	–	–	–	–
Nc1ncn([C@@H]2O[C@H](CO)[C@@H](O)[C@H]2O)c(=O)n1	inconclusive: 33.5 µM [cytotoxic, single point]	inconclusive: 30.7 µM [cytotoxic, partial curve, poor fit]	active: 7.5 µM	inconclusive: 33.5 µM [cytotoxic, single point]	–	inconclusive: 21.1 µM [cytotoxic, single point]	–	inconclusive: 33.5 µM [cytotoxic, single point]	–	–
